Source: paper PMC4336329 (PLoS ONE, 2015)
The campaign covered roughly 310,000 compounds. About 2,200 (0.71%) showed an effect of 50% or more. The effect is printed as a negative number. The list shows a part of the results.

What follows are compounds tested against human ether-à-go-go-related gene (hERG) potassium channel (human, UniProt Q12809) (assay: primary screen, population patch clamp on CHO cells stably expressing hERG).
Chain of human ether-à-go-go-related gene (hERG) potassium channel (Q12809 whole entry, looked up): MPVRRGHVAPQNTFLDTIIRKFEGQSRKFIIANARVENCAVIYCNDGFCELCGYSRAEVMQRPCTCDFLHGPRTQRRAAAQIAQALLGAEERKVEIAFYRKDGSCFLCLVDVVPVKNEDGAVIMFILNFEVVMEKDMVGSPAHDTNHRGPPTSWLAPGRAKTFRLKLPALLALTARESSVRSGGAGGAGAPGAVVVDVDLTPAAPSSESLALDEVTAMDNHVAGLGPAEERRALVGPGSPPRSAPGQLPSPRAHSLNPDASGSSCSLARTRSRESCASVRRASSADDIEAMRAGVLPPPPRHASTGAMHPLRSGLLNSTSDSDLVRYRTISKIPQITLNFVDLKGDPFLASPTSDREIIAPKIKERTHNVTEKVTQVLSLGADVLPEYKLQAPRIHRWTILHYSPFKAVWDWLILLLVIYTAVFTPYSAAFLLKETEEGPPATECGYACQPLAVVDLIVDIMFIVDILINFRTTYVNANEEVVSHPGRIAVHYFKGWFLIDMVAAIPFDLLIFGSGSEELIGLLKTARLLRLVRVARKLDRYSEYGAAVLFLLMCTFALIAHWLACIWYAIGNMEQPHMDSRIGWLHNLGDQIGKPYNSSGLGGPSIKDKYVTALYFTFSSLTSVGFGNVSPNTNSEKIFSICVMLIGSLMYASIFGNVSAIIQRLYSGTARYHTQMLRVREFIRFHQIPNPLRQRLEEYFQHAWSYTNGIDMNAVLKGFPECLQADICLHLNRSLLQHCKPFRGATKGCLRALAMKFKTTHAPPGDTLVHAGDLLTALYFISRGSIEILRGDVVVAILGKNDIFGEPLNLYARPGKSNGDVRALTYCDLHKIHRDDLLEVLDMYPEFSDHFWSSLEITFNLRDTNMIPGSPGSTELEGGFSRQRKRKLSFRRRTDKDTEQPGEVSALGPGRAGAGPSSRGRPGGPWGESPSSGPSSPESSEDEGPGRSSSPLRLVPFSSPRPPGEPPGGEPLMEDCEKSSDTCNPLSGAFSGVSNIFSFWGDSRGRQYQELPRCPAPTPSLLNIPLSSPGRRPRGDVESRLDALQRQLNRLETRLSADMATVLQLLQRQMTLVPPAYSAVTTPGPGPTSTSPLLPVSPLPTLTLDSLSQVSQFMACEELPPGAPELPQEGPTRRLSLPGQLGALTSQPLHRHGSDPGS
With `COc1ccc(Cl)cc1NS(=O)(=O)c1cc(Cl)ccc1OC` the “hERG current change (%, negative = inhibition) at 1uM” value was 5.5%. `CC(C)Oc1ccc(S(=O)(=O)N2CCCCC2)cc1NC(=O)CN1C(=O)NC(C)(c2ccccc2)C1=O` (stereo not drawn) was tested, and the “hERG current change (%, negative = inhibition) at 1uM” value was 0.576%. In the case of `Cc1ccc(S(=O)(=O)c2nc(-c3ccco3)oc2SCC(=O)NCC2CCCO2)cc1` (stereo not drawn), the “hERG current change (%, negative = inhibition) at 1uM” value was 10.8%. With `COc1cc(/C=C/C(=O)Nc2ccc(N3CCCCC3)c(S(=O)(=O)Nc3ccccc3Cl)c2)cc(OC)c1OC` the “hERG current change (%, negative = inhibition) at 1uM” value was 8.14%. For `O=C(O)C(CO)(c1ccccc1)c1ccccc1`, the “hERG current change (%, negative = inhibition) at 1uM” value was 1.48%. `CCCOc1ccccc1C1NC(=O)NC(C)=C1C(=O)OCCOCC` (stereo not drawn) was tested, and the “hERG current change (%, negative = inhibition) at 1uM” value was 12.7%. `CCOC(=O)CN1C(c2ccc(O)cc2)Nc2ccc(Br)cc2C1c1ccccc1` (stereo not drawn) was tested, and the “hERG current change (%, negative = inhibition) at 1uM” value was 11.5%. In the case of `S=C1NC2(CCCC2)N=C1c1ccccc1`, the “hERG current change (%, negative = inhibition) at 1uM” value was 6.21%. For `Cc1ccc(C(=O)NCCc2nnc3c(C(F)(F)F)cc(Cl)cn23)o1`, the “hERG current change (%, negative = inhibition) at 1uM” value was 12.4%. In the case of `O=C1Nc2cc(C(=O)N3CCC4(CC3)OCCO4)ccc2S/C1=C\c1ccccc1`, the “hERG current change (%, negative = inhibition) at 1uM” value was 27.2%. `c1ccc(-n2nnnc2SCc2ccccn2)cc1` was tested, and the “hERG current change (%, negative = inhibition) at 1uM” value was 8.35%. With `CS(=O)(=O)c1nc(S(=O)(=O)c2ccc(Cl)cc2)c(N2CCOCC2)s1` the “hERG current change (%, negative = inhibition) at 1uM” value was 15.7%. In the case of `CC(=O)c1cccc(NC(=O)CSc2nnc(C(C)N(C)C)n2-c2ccc(F)cc2)c1` (stereo not drawn), the “hERG current change (%, negative = inhibition) at 1uM” value was 1.78%. In the case of `CCOC(=O)/C(O)=C(\C#N)c1nc2ccccc2[nH]1`, the “hERG current change (%, negative = inhibition) at 1uM” value was 12.8%. In the case of `COc1ccc(Nc2oc(COc3cccc(C)c3)nc2C#N)cc1`, the “hERG current change (%, negative = inhibition) at 1uM” value was 7.52%. With `O=C(NCC(O)c1ccccc1)c1cccs1` (stereo not drawn) the “hERG current change (%, negative = inhibition) at 1uM” value was -11.3%. In the case of `Cc1ccc(C(C2C(=O)CC(C)(C)CC2=O)C2C(=O)CC(C)(C)CC2=O)s1`, the “hERG current change (%, negative = inhibition) at 1uM” value was 18.5%. With `CCOC(=O)[C@H](CCc1ccccc1)N[C@@H](C)C(=O)N1C(C(=O)O)C[C@@H]2CCC[C@@H]21` (stereo partly drawn) the “hERG current change (%, negative = inhibition) at 1uM” value was 17.5%. For `CCc1cccc(NC(=O)CCCN2C(=O)NC(C)(C)C2=O)c1`, the “hERG current change (%, negative = inhibition) at 1uM” value was 15.7%. `COc1ccc(-c2n[nH]c(=S)n2Cc2ccco2)cc1` was tested, and the “hERG current change (%, negative = inhibition) at 1uM” value was 4.89%. `CCOC(=O)C1=C(C)NC(C)=C(C(=O)OCC)C1C(=O)OCC(N)=O` was tested, and the “hERG current change (%, negative = inhibition) at 1uM” value was 2.4%. In the case of `O=C1NC2=C(C(=O)c3ccccc32)C(c2ccccc2)N1` (stereo not drawn), the “hERG current change (%, negative = inhibition) at 1uM” value was 0.297%. With `O=C(c1ccc(CS(=O)c2ccc(F)cc2)o1)N1CCN(C2CCCCC2)CC1` (stereo not drawn) the “hERG current change (%, negative = inhibition) at 1uM” value was 13.7%. For `Cc1cccc(N2CCN(S(=O)(=O)c3ccc4c(c3)CCN4C(=O)CCC(=O)O)CC2C)c1` (stereo not drawn), the “hERG current change (%, negative = inhibition) at 1uM” value was 17.3%.
